Data on 84 compounds can be found in PubChem BioAssay (NCI).

Each structure is given as a SMILES string.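 Briefly, cells in 96-well plates were exposed to five compound concentrations for 48 h, and endpoints were estimated by linear interpolation. GI50 = concentration required for 50% inhibition of growth. TGI is the concentration that stops growth completely.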 A value given as a limit tells only on which side of the number the result lay.

This test deals with NCI-H322M lung. In words: growth of human tumour cells (NCI), 48 h.
Take `CCOc1ccc(-n2nnc3c(N)nc(N)nc32)cc1`: the TGI was more than 100 µM.

Compound `COc1ccc(/C=C2\CN(C)C/C(=C\c3ccc(OC)c(OC)c3OC)C2=O)c(OC)c1OC` gave a TGI of 0.677 µM.

Regarding `CCCCCn1sc(=O)n(Cc2ccc(CNC(=O)OCc3ccc4cccc(O)c4n3)cc2)c1=O`, the GI50 was 4.76 µM and the TGI was 17.5 µM.

For the compound `COC(=O)C1=C(C)N2[C@H](C(=O)O)CO[C@@]2(C)[C@H](C(=O)OC)[C@H]1c1cccc([N+](=O)[O-])c1`, the TGI is more than 100 µM.

The compound `Nc1ccc(C(=O)NN2C(=O)C(Cl)C2c2ccccc2)cc1` (stereo unspecified) came in with a TGI of more than 100 µM.

With `C[CH2][Pb]([CH2]C)([CH2]C)[O]C(=O)c1ccc2ccccc2n1`, the GI50 was more than 10 µM and the TGI is more than 10 µM.

Consider `CCN(c1cccc(NC(=S)Nc2ccccc2N(CC)c2cc(-c3ccccc3)no2)c1)c1cc(-c2ccccc2)no1`, for which the TGI was more than 100 µM.

Consider `C[C@@H]1O[C@@H](O[C@H]2CC[C@@]3(C)[C@H](CCC4[C@@H]3C(O)C[C@]3(C)[C@@H](c5ccc(=O)oc5)CC[C@]43O)C2)[C@H](O)[C@H](O)[C@H]1O` (stereo partly specified), for which the GI50 was less than 0.00325 µM and the TGI came out at 0.0145 µM.

For `Cc1ccc(N=Nc2c(O)c(C(=O)Nc3ccccc3)cc3ccccc23)c([N+](=O)[O-])c1`, the TGI was more than 100 µM.

`O=C(O)CNC(=O)c1c2ccccc2nc2ccccc12` showed a TGI of more than 100 µM.

Take `Cn1cc(-c2nonc2-c2cn(C)c3ccccc23)c2ccccc21`: the GI50 is 4.39 µM and the TGI was more than 100 µM.

As for `O=C([CH-]C(=O)c1ccccc1)c1ccccc1.O=C([CH-]C(=O)c1ccccc1)c1ccccc1.[OH-].[OH-].[Ti+4]`, the GI50 is more than 100 µM and the TGI was more than 100 µM.

In turn, `Cn1c2ccccc2n2c(=O)c3c(c(C#N)c12)CCCC3` yielded a TGI of more than 100 µM.

For `N/N=C1\CC(=O)NC(=O)N1`, the TGI is more than 100 µM.

Compound `O=C(Nc1cccc(F)c1)c1cc2ccc(O)cc2oc1=Nc1ccccc1F` came in with a TGI of 8.18 µM.

In the case of `CCCCn1c(=O)c2c(nc3n2CCCN3CCc2ccc(OCC(=O)NCCN(CC)CC)cc2)n(CCCC)c1=O`, the GI50 was 5.41 µM and the TGI turned out to be 13.4 µM.

With `OC(c1cc2cc(Cl)c(Cl)cc2c2cc(C(F)(F)F)ccc12)C1CCCCN1` (stereo unspecified), the GI50 is 1.71 µM and the TGI turned out to be 3.31 µM.

As to `O=C(Cc1ccccc1)NN1C(=O)C(Cl)C1c1ccccc1O` (stereo unspecified), the TGI was more than 100 µM.

Regarding `CCN1C(=O)N(CC)C2C1NN=c1s/c(=C3\C(=O)N(CCc4ccccc4)c4ccccc43)c(=O)n12` (stereo unspecified), the GI50 is 1.41 µM and the TGI was more than 26.5 µM.

As to `COC(=O)C1=C(OC(=O)c2ccccc2)C(C(=O)OC)[C@]2(O)[C@@H](C(=O)OC)[C@H]1C[C@@H](c1ccccc1)[C@@H]2C(=O)OC` (stereo partly specified), the TGI is 58 µM.

As for `Cc1ccc(/C=C2\CCCC(CN3CCCCC3)C2=O)cc1` (stereo unspecified), the TGI was found to be 29.6 µM.

As to `Nc1ccccc1SCc1csc(-c2ccc(Cl)cc2)n1`, the TGI is more than 100 µM.

The compound `COc1ccc(CSc2ccccc2Cn2cccc2)cc1OC` came in with a TGI of more than 100 µM.

Regarding `COc1cc2c(cc1OC)C1(c3ccc(Cl)cc3)ON=C(c3ccccc3)N1CS2` (stereo unspecified), the TGI was more than 100 µM.

Compound `Cc1ccc(CC(C)N)cc1` (stereo unspecified) gave a TGI of more than 100 µM.

As for `CC(C)=CCC/C(C)=C/CC/C(C)=C/CC/C=C(\C)CC/C=C(\C)CCC(=O)Nc1ccn(C2OC(CO)C(O)C2(F)F)c(=O)n1` (stereo unspecified), the GI50 was 0.103 µM and the TGI stood at 6.6 µM.

In the case of `Brc1c(C#CCC2CCCCC2)ccc(C#CCC2CCCCC2)c1Br`, the TGI is more than 100 µM.

Compound `Brc1ccc(-c2cn3ccncc3n2)cc1` registered a TGI of more than 100 µM.

For the compound `CCOc1nc(N)nc(C)c1N=Nc1ccc(Cl)cc1`, the TGI is more than 100 µM.

With `COc1ccc(C(=O)c2[nH]c(Nc3ccc(Cl)cc3)c(C(=S)Nc3ccccc3)c2N)cc1`, the TGI was more than 100 µM.

As for `CC1(C)OC2C(=O)C=C(COCc3ccccc3)C2O1` (stereo unspecified), the TGI was more than 100 µM.

`CCNC1=C(NC(=O)CC)C(=O)c2ccccc2C1=O` gave a TGI of more than 100 µM.

`O=C(CC(=O)Nc1ccccc1)N/N=C/c1cc(N=Nc2ccc(Br)cc2)ccc1O`: the TGI is more than 10 µM.

`Nc1nc(Cl)c(N)c(NCC2(CO)CC(CCCc3ccccc3)C2)n1` (stereo unspecified) returned a TGI of more than 100 µM.

In turn, `Cc1ccc2c(=O)cc(-c3ccc(-c4ccccc4)s3)[nH]c2n1` gave a TGI of more than 100 µM.

With `COc1cc(/C=C(/C#N)C(N)=O)ccc1O`, the TGI was more than 100 µM.

As to `O=C(NC1CCCC1=O)c1ccccc1` (stereo unspecified), the TGI is more than 100 µM.

As for `CCOC(=O)c1ccc(C(=O)C(C(C)=O)C(=O)OC(C)(C)C)[nH]1` (stereo unspecified), the TGI is more than 100 µM.

For `COc1ccc2c(c1OC)C(=O)OC2C1c2c(c([N+](=O)[O-])c3c(c2OC)OCO3)CCN1C` (stereo unspecified), the GI50 was more than 100 µM and the TGI is more than 100 µM.

The compound `C/C(=C/CC[C@]1(CO)CC[C@]2(CO)[C@H](CC[C@@H]3[C@@]4(C)CC[C@H](OC5OCC(O)C(O)C5OC5OC(CO)C(O)C(O)C5O)C(C)(C)[C@@H]4CC[C@]32C)[C@H]1O)CO` (stereo partly specified) gave a TGI of more than 100 µM.

With `COc1ccc(OC)c(C2SCC(=O)N2NC(=O)C(O)c2ccccc2)c1` (stereo unspecified), the GI50 was more than 100 µM and the TGI is more than 100 µM.

`COc1ccc(C2[C@@H](Cl)C(=O)N2c2cc(OC)c(OC)c(OC)c2)cc1Cl` (stereo partly specified): the GI50 was 4.47 µM and the TGI is 28.1 µM.

In turn, `COC(=O)c1c(OC(C)=O)ccc2c1c1c(OC(C)=O)c3ccccc3c(OC(C)=O)c1n2Cc1ccccc1` displayed a TGI of 27.3 µM.

Compound `CNc1ccc(N)cc1C(=O)N1CCC[C@H]1CO` displayed a TGI of more than 100 µM.

For `CN1CCN(CC(O)COc2c(Br)c(Br)c(Br)c3c2OC(C)(C)C3)CC1` (stereo unspecified), the GI50 is 16.6 µM and the TGI was found to be 35.3 µM.

The compound `O=P1(Oc2ccccc2)C(c2ccccc2)C(c2ccccc2)=NN1c1ccccc1` (stereo unspecified) displayed a TGI of 62.3 µM.

Consider `c1ccc(P(=Nc2ccccc2N=P(c2ccccc2)(c2ccccc2)c2ccccc2)(c2ccccc2)c2ccccc2)cc1`, for which the TGI is more than 100 µM.

In turn, `OC1(c2ccccc2)CSC2=Nc3ccccc3C3CCN1N23` (stereo unspecified) yielded a TGI of 60.3 µM.

As for `Cc1ccc2nc(NC(=O)/C(Cc3nc4ccc(Cl)cc4[nH]c3=O)=N\NC(C)(C)C)sc2c1`, the TGI was more than 100 µM.

Take `COc1ccc2c(c1)CCN1CCc3cc(OC)c(OC)cc3CC21` (stereo unspecified): the TGI is more than 100 µM.

As for `N#CN1CC[C@H](C(=O)Nc2ncc(-c3ccncc3)s2)C1`, the GI50 is 0.0863 µM and the TGI was found to be 26.3 µM.

In the case of `COc1ccc2oc(=N)c(C(=O)Nc3ccccn3)cc2c1`, the TGI is more than 100 µM.

Regarding `CN1CCC(n2cnc(-c3ccc(F)cc3)c2-c2ccnc(N)n2)CC1`, the GI50 was 10.9 µM and the TGI is more than 25 µM.

Consider `O=C1NC(=O)C(c2cccc(Cl)c2)=C1Nc1ccc(O)c(Cl)c1`, for which the GI50 is 17.8 µM and the TGI was more than 25 µM.

As to `Cc1cc(O)c(C(C)C)cc1C1(c2cc(C(C)C)c(O)cc2C)OC(=O)c2ccccc21`, the TGI is more than 32.3 µM.

Consider `CC(C)(C)c1cc(C2COC(c3cc(C(C)(C)C)c(O)c(C(C)(C)C)c3)CO2)cc(C(C)(C)C)c1O` (stereo unspecified), for which the TGI is more than 100 µM.

For the compound `CCC[C@H](C)C[C@H](C)C[C@H](C)/C=C(\C)[C@@H](O)[C@@H](C)C(=O)CC`, the TGI worked out at 37.5 µM.

In turn, `OC(c1ccc(-c2ccccc2)cc1)C(F)(F)c1nc2ccccc2o1` (stereo unspecified) came in with a TGI of more than 100 µM.

For `Fc1ccccc1C1SCc2nc3cc4ccccc4cc3n21` (stereo unspecified), the TGI is more than 100 µM.

`COC(=O)c1c(O)ccc2c1C1(Cc3ccccc3C1=O)C(O)O2` (stereo unspecified): the TGI was more than 100 µM.

Take `C[C@H]1C=C2[C@@H]3CC(C)(C(=O)O)CC[C@]3(C)CC[C@]2(C)[C@]2(C)CC[C@H]3C(C)(C)[C@@H](OC(=O)c4cccc5c(=O)c6ccccc6[nH]c45)CC[C@]3(C)[C@@H]12` (stereo partly specified): the TGI is more than 100 µM.

Compound `CC(C)[C@@H]1ON1C(C)c1ccccc1` (stereo partly specified) registered a TGI of more than 100 µM.

As for `COC(=O)c1nc(-c2ccccc2)oc1S(=O)(=O)n1nc(C)cc1N`, the GI50 was more than 100 µM and the TGI is more than 100 µM.

Compound `COc1cc2nc(NCCCCCNC(=O)c3ccco3)nc(N)c2cc1OC` returned a TGI of 75.8 µM.

`O=C(CSC1=NCCN1)Nc1ccccc1` came in with a TGI of more than 100 µM.

`O=c1onc2c3ccccc3ncn12` yielded a TGI of more than 100 µM.

In the case of `CC(=O)OCC1OC(n2c(=O)[nH]c(=O)c3sccc32)C(Br)C1OC(C)=O` (stereo unspecified), the TGI is more than 100 µM.

Consider `CC(C)(C)OC(=O)NCCC1CN(C(=O)c2ccccc2)c2ccccc21` (stereo unspecified), for which the TGI was more than 100 µM.

Regarding `O=C(N/N=C/c1cc(Cl)cc(Cl)c1O)c1ccccc1O`, the GI50 was 2.25 µM and the TGI came to 28.8 µM.

Compound `Cc1csc2nc(-c3ccc(Cl)c([N+](=O)[O-])c3)c(/C=N/N=C(N)N)n12` came in with a TGI of 3.19 µM.

For `CN(CCCCCl)P(=O)(OCCS(=O)(=O)CC(NC(=O)CCC(N)C(=O)O)C(=O)NC(C(=O)O)c1ccccc1)OCC1OC(n2cc(F)c(=O)[nH]c2=O)CC1O` (stereo unspecified), the GI50 is 4.66 µM and the TGI was more than 73.6 µM.

`COc1ccc(/C=N/NC(=O)Cn2c(-c3ccc(S(C)(=O)=O)cc3)nc3cc(Cl)ccc32)cc1`: the GI50 was 2.8 µM and the TGI was more than 50 µM.

In turn, `CN(C)CC1CCCC1=O` (stereo unspecified) registered a TGI of 39.5 µM.

`COCCOCOc1ccc(OCOCCOC)c2c1C(=O)c1ccccc1C2=O`: the TGI is more than 100 µM.

`CCOP(=O)(OCC)C(C)(CC)NC` (stereo unspecified): the TGI is more than 100 µM.

`Cc1ccc(S(=O)(=O)NCCSCCSCCNS(=O)(=O)c2ccc(C)cc2)cc1` showed a TGI of more than 100 µM.

As to `CN1COc2c(n(C)c(=O)[nH]c2=O)C1`, the TGI is more than 100 µM.

Compound `Cc1ccc(/C(O)=C/C(=O)C(=O)NN=C(c2ccccc2)c2ccccc2)cc1` displayed a TGI of more than 100 µM.

`CC[C@@H](/C=C\CCC(=O)C[C@H](O)CCC=C(C)C)O[Si](C(C)C)(C(C)C)C(C)C` yielded a TGI of more than 100 µM.

In turn, `N#C/C(=C\c1c[nH]c2ccccc12)C(=O)c1ccc(O)c(O)c1` gave a TGI of more than 100 µM.

`CCOC(=O)C(=O)Nc1cc(Cl)ccc1Cl` returned a TGI of more than 100 µM.

For `O=[As](O)(O)c1ccc(N=Nc2ccc(O)cc2)cc1`, the TGI was more than 100 µM.

`COc1ccc(OC)c(Cn2cc3c(c2)-c2oncc2CC3)c1`: the GI50 is 3.61 µM and the TGI was more than 100 µM.

Take `CC1(C)N=C(N)N=C(N)N1c1ccc(CCCCc2ccc(S(=O)(=O)F)cc2)c(Cl)c1`: the GI50 was 0.709 µM and the TGI worked out at 20.8 µM.
